From a collection of fitness landscapes (doi:10.1016/j.celrep.2020.107928)
Over roughly 81,000 sequences, “one-hybrid fitness for binding NBS DNA” has its median near -0.1; the highest 2% begin near 0.36. Some of the results follow.

B1: Caulobacter ParB omega fusion; a variant is named by its letters at X, in order, B8GW30 (parent)
chain: MESVVVGEPGMSEGRRGLGRGLSALLGEVDAAPAQAPGEQLGGSREAPIEILQRNPDQPRRTFREEDLEDLSNSIREKGVLQPILVRPSPDTAGEYQIVAGERAWRAAQRAGLKTVPIMVRELDDLAVLEIGIIENVQRADLNVLEEALSYKVLMEKFERTQENIAQTIGKSXSHVANXMRLLXLPDEVQSYLVSGELTAXHARAIAAAADPVALAKQIIEGGLSVRETEALARKAPNLSAGKSKGGRPPRVKDTDTQALESDLSSVLGLDVSIDHRGSTGTLTITYATLEQLDDLCNRLTRGI

Variants of: B1
Experiment: one-hybrid fitness for binding NBS DNA (the Noc-binding site; scaled: cognate 1, non-cognate 0); higher = stronger binding
Details: with NBS DNA site
Method in brief: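 Bacterial one-hybrid selection in E. coli USO rpoZ- hisB- pyrF- with a HIS3 reporter carrying the site 19 bp from the promoter, screening Caulobacter ParB libraries with four specificity codons randomised (NNS). Cells grew 48 hours at 37°C on M9-minus-histidine plus 0.1 mM IPTG and 5 mM 3-AT. Plasmids before and after selection were Illumina-sequenced, three replicate libraries pooled, and variants under 10 reads dropped. Fitness is the log change in variant-to-wild-type read ratio, rescaled to cognate 1, non-cognate 0.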

one-hybrid fitness for binding NBS DNA, ≤ 0.2:
HREN
SWGS
QFGL
EHGL
TNEC
ESVR
LIGS
MGSF
NLIT
LPLN
SPHY
GQKT
MESD
GTTT
FSSV
RVYF
LMGL
WSIC
YLFF
NDSR
DKNC
PWTD
NPEN
VYKD
GTGL
MAGE
LYPN
YATW
QDHL
HKWS
TASK
LKSW
TDRF
PFAG
SNFV
GTVR
FASC
AEPT
QERY
VLDS
PTTA
VAAV
DKSR
LQRM
MPSV
QTIK
TIGM
KGPW
WPYT
LNPL
VIDE
YFYC
ITPF
ATYD
PEKP
PHTW
RDGS
QWVE
RPPR
IKYS
RPGM
CYKC
LYSK
GTGT
ITET
KPDR
KCRM
LEHP
TSNY
YATK
SPHC
STIE
ITQI
GHAV
ATTF
SPTI
YRPR
AFPC
YVQW
AIGD
PEAM
VPGT
PYNK
LLRV
RENN
QDAS
TSRN
AIPG
VLTN
IPPY
WDVW
WNFR
GHEC
MMVW

one-hybrid fitness for binding NBS DNA, 0.215:
RTRG

one-hybrid fitness for binding NBS DNA, 0.26:
QQPS

one-hybrid fitness for binding NBS DNA, 0.363:
QKIT
